Experimental data: PubChem BioAssay AID504466 (National Center for Advancing Translational Sciences (NCATS), 2011)
Out of some 330,000 compounds screened, about 4,200 (1.3%) were called active. Inconclusive means that the source gave no clear call. Such entries were picked first, then a sample of the others. Calls come from the whole dose curve; as a rule, active = well fitted activation curve with a large enough effect; inconclusive = small, poorly fitted or top-dose-only effect; inactive = no such curve, though single readings can be large or run the other way. Potencies of inconclusive entries are doubtful fits and often do not repeat.

experiment: qHTS screen for small molecules that induce genotoxicity in human embryonic kidney (HEK293T) cells expressing luciferase-tagged ELG1; conditions: HEK293T ELG1-luciferase reporter, luminescence, 16 h; series mostly up to 46 µM; activity change, positive = activation: at the top concentration; note: nearly all actives have a fitted effect of over 60% in size; for activity change, positive = activation: % of control where 0% means no effect
Summary of the method: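 HEK293T cells expressing luciferase-tagged ELG1 were treated with compound or DMSO for 16 hr at 37°C. Luciferase activity was then read after 30 min with ONE-Glo at room temperature; rising signal flags genetic stress.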
Potency is the fitted concentration of half-maximal effect; tags give direction and shape of the fitted curve.

SMILES	activity change, positive = activation	Potency
Cc1cc(C)c(NC(=O)COC(=O)COc2ccc3c(C)cc(=O)oc3c2)c(Cl)c1	inactive: 4.15%	
CC(=O)Nc1ccc(S(=O)(=O)N(C)CC(=O)OCC(=O)N(C)C2CCS(=O)(=O)C2)cc1 (stereo not given)	inactive: -2.71%	
N#CCn1nnc(-c2ccc3c(c2)OCO3)n1		inconclusive: 29.1 µM [activator, partial curve, poor fit]
Cc1cc(NCCN2CCOCC2)n2ncc(-c3ccccc3)c2n1		active: 8.2 µM
O=C(COC(=O)c1c(F)cccc1Cl)NCC1CCCCC1		inconclusive: 23.1 µM [activator, partial curve, poor fit]
Cc1ccc(-c2cc3nc(C)cc(C)n3n2)cc1		active: 5.17 µM
CN=C(Nc1cc(Cl)ccc1Cl)SC1CC(=O)N(c2ccc(C(=O)OC)cc2)C1=O (stereo not given)	inactive: -13.7%	
COc1ccc2c(c1OC)C(=O)N(c1ccc(O)cc1)C2		inconclusive: 14.6 µM [activator, partial curve]
COc1ccccc1CC(=O)Nc1ccc2nc(C)sc2c1		inconclusive: 23.1 µM [activator, partial curve, poor fit]
Cc1occc1-c1nnc(SCC(=O)N(C)C)o1		inconclusive: 16.4 µM [activator, partial curve]
CC[C@]1(C(=O)OC)[C@H]2C(=O)N(C)C(=O)[C@H]2[C@H]2CN=C(SCc3ccc(C(=O)OC)cc3)N21	inactive: 10.6%	
O=[N+]([O-])c1cccc(N/N=C/c2ccc(N3CCOCC3)cc2)c1		inconclusive: 13 µM [activator, partial curve]
COc1ccc(C(=O)c2coc3ccc(OC(C)=O)cc23)cc1		inconclusive: 5.17 µM [activator, single point]
O=C(CCCN1C(=O)c2cccc3cccc(c23)C1=O)N1CCN(c2ccccc2)CC1	inactive: -1.25%	
COc1ccc([N+](=O)[O-])cc1NCc1cccnc1		inconclusive: 11.6 µM [activator, partial curve]
COc1ccc(NC(=S)Nc2ccccn2)c(OC)c1		inconclusive: 2.91 µM [activator, full curve]
CS(=O)(=O)c1ccc2c(c1)SC1=NC(=O)/C(=C/c3ccco3)C(=N)N12		inconclusive: 23.1 µM [activator, partial curve, poor fit]
c1ccc(-c2ccc(CN3CCSCC3)cc2)cc1	inactive: 4.81%	
Cc1ccc(CNC(=O)CCC2CCCN(Cc3cccc4ncccc34)C2)o1 (stereo not given)	inactive: -0.529%	
COc1ccc(-n2ncc3c(N4CCCCC4)ncnc32)cc1		active: 0.0651 µM
Cc1cc2cc(CCNC(=O)c3cccs3)c(=O)[nH]c2cc1C		inconclusive: 9.2 µM [activator, partial curve, poor fit]
Cc1ccccc1C(=O)Nc1nnc(SCC(=O)NCc2ccco2)s1		active: 2.91 µM
Cc1ncc(CO)c(CNc2ccc(Oc3ccccc3)cc2)c1O	inactive: -4.11%	
CC(=O)c1c(C)[nH]c(C(=O)N2CCc3ccccc32)c1C		inconclusive: 17.8 µM [activator, single point]
CC(NC(=O)CCc1nnc(Cc2cccc(C(F)(F)F)c2)o1)C1CC1 (stereo not given)		inconclusive: 18.3 µM [activator, single point]

SMILES	activity change, positive = activation	Potency
O=C(N/N=C/c1ccc(Cl)cc1)c1n[nH]c2c1CCCC2		active: 8.2 µM
CCOC(=O)C1CCN(C(=O)c2oc3ccc(S(=O)(=O)N4CC(C)CC(C)C4)cc3c2C)CC1 (stereo not given)		inconclusive: 8.2 µM [activator, partial curve, poor fit]
COc1ccc(-c2noc(CN(C(=O)C(C)(C)C)C(C)C)n2)cc1		active: 14.6 µM
C/C(=N/NC(=O)c1cnccn1)c1cccs1		inconclusive: 9.2 µM [activator, partial curve]
CCOc1ccc(Cl)cc1S(=O)(=O)NCc1cccnc1		inconclusive: 32.6 µM [activator, partial curve, poor fit]
COc1ccc(C(=O)NC(=S)Nc2ccc3c(c2)Cc2ccccc2-3)cc1		inconclusive: 29.1 µM [activator, partial curve, poor fit]
CCn1c(/C=C/c2ccccc2)nc2ccccc21		inconclusive: 1.84 µM [activator, partial curve]
O=C(Nc1cccnc1Cl)c1cc(-c2ccco2)on1		active: 16.4 µM
Clc1ccccc1CSc1ncn(-c2ccccc2)n1		inconclusive: 14.6 µM [activator, partial curve]
Cc1cc(Cl)ccc1OCC(=O)Nc1ccccc1CO		inconclusive: 14.6 µM [activator, partial curve, poor fit]
CCOC(=O)CSC1=NC(=O)/C(=C\c2ccc(Cl)cc2)S1		inconclusive: 16.4 µM [activator, single point]
O=Cc1ccc(OCc2ccc3c(c2)OCO3)cc1		active: 18.3 µM
COC(=O)Nc1nnc(-c2ccccc2OC)s1		inconclusive: 20.6 µM [activator, partial curve]
O=C1Nc2ccccc2C1=Nc1ccc(F)cc1	inactive: 2.3%	
N#Cc1ccc(-c2ccc(Cl)cc2)nc1SCC(=O)c1cccc(Cl)c1		inconclusive: 32.6 µM [activator, partial curve, poor fit]
CCOC(=O)c1cn2nc(Oc3ccc(C)cc3)ccc2n1		inconclusive: 20.6 µM [activator, partial curve, poor fit]
O=C(CCN1C(=O)/C(=C/c2ccccc2F)SC1=S)NC1C=CS(=O)(=O)C1 (stereo not given)	inactive: 8%	
CCCC(=O)NC(c1ccc(Cl)cc1Cl)c1ccc2cccnc2c1O (stereo not given)		inconclusive: 9.2 µM [activator, partial curve]
O=C(Nc1ccc(F)cc1)Nc1ccccc1F		inconclusive: 25.9 µM [activator, single point]
COc1ccc(NC(=O)C/C(C)=N/NC(=O)c2cccs2)c([N+](=O)[O-])c1		inconclusive: 16.4 µM [activator, partial curve, poor fit]
Cc1cc(C)c(C#N)c(SCc2nnc(-c3ccccc3)o2)n1		inconclusive: 0.206 µM [activator, full curve]
CCc1ccc(Oc2cc(C)nc(N)n2)cc1		inconclusive: 20.6 µM [activator, partial curve]
CCc1ccc(-c2nc(CCl)cs2)cc1		inconclusive: 7.31 µM [activator, partial curve, poor fit]
O=C(N/N=C1\CCc2ccccc21)c1ccccc1Cl		active: 18.4 µM
CCOC(=O)N1C(=O)[C@@](c2ccc(Cl)cc2)(C(C)C)N1C(=O)OCC	inactive: -8.1%	

SMILES	activity change, positive = activation	Potency
CCN(CC)c1ccc(/C=N/NC(=O)c2ccc(Br)o2)cc1		inconclusive: 6.51 µM [activator, partial curve]
Cc1ccc(NC(=O)c2ccc(CSc3nccc(C)n3)cc2)cc1	inactive: -4.66%	
Cc1cc(S(=O)(=O)NCc2cccs2)ccc1-n1cnnn1	inactive: 1.49%	
COc1ccccc1NC(CC(=O)c1ccccc1)C(=O)OCC(=O)c1ccc(C)cc1 (stereo not given)		active: 2.31 µM
O=C(Nc1ccc2c(c1)OCCO2)C1CCN(c2ncccn2)CC1		inconclusive: 23.1 µM [activator, partial curve, poor fit]
Cc1cc(Cl)c2oc(C(=O)N3CCN(C(=O)c4ccco4)CC3)c(C)c2c1		inconclusive: 13 µM [activator, partial curve]
O=C(NCc1nnc(SCc2ccc(C(F)(F)F)cc2)n1-c1ccccc1)C12CC3CC(CC(C3)C1)C2	inactive: -1.22%	
COc1ccc(-c2cc(C(=O)N3CCN(c4ccccc4OC)CC3)no2)cc1	inactive: 0%	
COc1ccc(-c2nnc(-c3ccc(N)cc3)o2)cc1		active: 7.31 µM
CCN1CC2=C(OC(N)=C(C#N)C2c2cccs2)/C(=C/c2cccs2)C1 (stereo not given)	inactive: -29.6%	
O=C(Nc1ccccc1F)NC1CCCCCCC1		inconclusive: 20.6 µM [activator, partial curve]
O=C(CSc1nc2ccccc2[nH]1)c1cccs1		inconclusive: 6.51 µM [activator, partial curve]
CC(=O)c1cccc(NC(=O)NCc2ccccn2)c1		active: 9.2 µM
Cc1ccc(NC(=O)CNC(=O)c2ccc(C)s2)nc1		inconclusive: 25.9 µM [activator, partial curve, poor fit]
C/C(=N\NC(=O)c1cc2ccccc2cc1O)c1ccccn1		inconclusive: 5.8 µM [activator, single point]
O=C1/C(=C\c2ccccc2)CCc2c1[nH]c1ccccc21		active: 1.46 µM
Cc1ccnn1CCC(=O)N1CCCC(CCC(=O)N2CCN(c3ccccn3)CC2)C1 (stereo not given)	inactive: -3.59%	
CCN(CC)c1ccc2cc(-c3nnc(-c4ccccc4)o3)c(=O)oc2c1		inconclusive: 4.11 µM [activator, partial curve, poor fit]
O=C(O)C1CCCCN1C(=O)c1ccc(S(=O)(=O)N2CCCC2)cc1 (stereo not given)	inactive: 0.693%	
COc1ccc(C(=O)c2cc([N+](=O)[O-])ccc2N2CCCC2)cc1	inactive: -1.36%	
COc1cc(Cl)ccc1OCc1cc(C(=O)N2C[C@]3(C)C[C@H]2CC(C)(C)C3)no1		inconclusive: 11.6 µM [activator, partial curve, poor fit]
Cc1nnc(SCC(=O)Nc2sc3c(c2C(N)=O)CCC(C)C3)[nH]c1=O (stereo not given)	inactive: -2.14%	
Cc1ccc(C(=O)OCC(=O)Nc2cccc(S(=O)(=O)N3CCOCC3)c2)o1	inactive: 3.64%	
CC(/C=N/n1c(-c2ccc(C)cc2)n[nH]c1=S)=C\c1ccco1	inactive: 5.13%	
COc1ccc(OC)c(Cc2nnc(CCC(=O)NC3CCCCCCC3)o2)c1		inconclusive: 23.1 µM [activator, partial curve, poor fit]
